# Paper PMC6919601, “Identification of Plasmodium dipeptidyl aminopeptidase allosteric inhibitors by high throughput screening” (PLoS ONE, 2019)
# Among all 110,000 compounds or so, about 230 (0.21%) showed an effect of 50% or more. This is one part of the list.
# Target: DPAP1 (Plasmodium falciparum, UniProt Q8IIJ9)
# Test: primary screen, percent inhibition; read by cleavage of a fluorogenic dipeptide substrate; higher = more effect of the substance
# Design: species or system P. falciparum D10 trophozoite lysates; single well
# Protocol: HTS was performed in black 384-well plates. The first and last two columns of each plate contained our negative (DMSO) and positive (10 μM JCP410) controls, and the 20 central columns the test compounds at 10 μM. Compounds were first diluted 50-fold into assay buffer (50 mM sodium acetate, 5 mM MgCl2, 10 mM β-mercaptoethanol, and 0.1% CHAPS, pH 5.5) from a 10 mM DMSO stock plates. One microliter of this 200 μM intermediate stock plate was dispensed into the assay plate. […] After 30 min, the reaction was quenched with 20 μL of 0.5 M acetic acid, and the fluorescent intensity measured at 523 nm (λex = 492 nm) using an Analyst HT multimode plate reader (Molecular Devices).
# 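Further: 30 min substrate incubation versus DMSO and 10 µM JCP410 controls.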
# DPAP1, sequence (Q8IIJ9 whole entry, looked up): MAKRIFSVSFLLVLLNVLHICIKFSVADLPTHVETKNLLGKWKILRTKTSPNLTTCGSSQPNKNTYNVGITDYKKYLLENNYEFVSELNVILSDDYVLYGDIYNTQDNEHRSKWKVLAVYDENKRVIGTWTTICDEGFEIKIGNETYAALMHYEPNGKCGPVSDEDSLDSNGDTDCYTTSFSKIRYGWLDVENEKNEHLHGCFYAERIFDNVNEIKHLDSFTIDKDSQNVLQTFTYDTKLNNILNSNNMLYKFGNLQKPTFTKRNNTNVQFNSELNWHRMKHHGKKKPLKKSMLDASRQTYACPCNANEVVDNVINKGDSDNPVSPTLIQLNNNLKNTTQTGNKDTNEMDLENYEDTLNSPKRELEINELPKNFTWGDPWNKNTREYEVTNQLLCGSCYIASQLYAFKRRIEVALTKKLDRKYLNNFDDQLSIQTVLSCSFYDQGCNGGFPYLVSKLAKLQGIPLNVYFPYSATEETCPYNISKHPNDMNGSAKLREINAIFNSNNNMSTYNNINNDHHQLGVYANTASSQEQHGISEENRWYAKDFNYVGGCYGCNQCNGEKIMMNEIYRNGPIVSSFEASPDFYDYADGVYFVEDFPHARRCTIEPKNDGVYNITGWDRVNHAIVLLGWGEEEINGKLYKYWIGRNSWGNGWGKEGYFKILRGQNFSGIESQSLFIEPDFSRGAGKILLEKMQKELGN
row,SMILES,% Inhibition @ 10 uM [%]
1,C=CCc1cc(/C=C2/C(=N)N3OC(C)=CC3=NC2=O)cc(OC)c1OC,-5.1
2,CCCC1C(=O)NC(=S)N(c2ccccc2)C1=O (centres unmarked),1.42
3,COc1ccc(NC(=O)/C=C/c2ccc(C(C)C)cc2)cc1,5.08
4,O=C(Nc1nc2ccccc2[nH]1)c1ccc(-c2ccccc2)cc1,1.84
5,CC(C)OCCCn1c(=O)c2ccccc2n2c(-c3ccccc3O)nnc12,-3.51
6,O=C(Nc1nccs1)C(NS(=O)(=O)c1cccc2nsnc12)c1ccccc1 (centres unmarked),0.317
7,Cc1nnc(N2CCC(C(=O)NC3CCCC3)CC2)c2nn(-c3ccc(Cl)cc3)c(C)c12,-4.18
8,COC(=O)c1sc2nc(C)ccc2c1N,-2
9,CCCOc1ccc(NCC(=O)Nc2ccc(C)cc2C)cc1,-7.08
10,CC1(C)CC(=O)C2=C(C1)c1c(ccc3ccccc13)NC2c1cccnc1 (centres unmarked),-1.97
11,CCN(CC)CCNc1cc(C)nc2c(-c3ccc(Cl)cc3)c(C)nn12,-6.4
12,COc1ccc(-c2c(C(=O)O)oc(=O)c3ccccc23)cc1,1.02
13,CN(C1CCCCC1)C1CCCCC1NS(=O)(=O)c1ccc(Cl)cc1 (centres unmarked),1
14,Cc1sc(NC(=O)c2ccc(Cl)cc2Cl)c(C#N)c1C,0.983
15,O=C(c1ccc(F)cc1)N1CCN(Cc2cccc(Oc3ccccc3)c2)CC1,-5.28
16,CC1CN(Cc2ccc(Cl)cc2)CC(C)O1 (centres unmarked),0.815
17,O=C(O)c1ncc(-c2ccccc2)cn1,1.9
18,CCOC(=O)N1CCN(C(=O)C2CCN(S(=O)(=O)c3cccc4nsnc34)CC2)CC1,-3.35
19,CC(C)(O)C#Cc1ccc(C(=O)NCCc2ccc(S(N)(=O)=O)cc2)cc1,13.3
20,O=C(CN1CCCN(Cc2ccc(F)cc2Cl)C1=O)NCc1cccnc1,-4.53
21,CC(=O)Nc1ccc(S(=O)(=O)N2CCN(C(=O)N3CCOCC3)CC2)cc1,-1.17
22,Cc1ccc(CNC(=O)C(NS(=O)(=O)c2ccc3nc(C)sc3c2)C(C)C)cc1 (centres unmarked),4.74

row,SMILES,% Inhibition @ 10 uM [%]
1,FC(F)Oc1ccc(C2CC(c3ccc(Cl)cc3)Nc3nnnn32)cc1 (centres unmarked),-5.19
2,Cc1ccc(C(C)C)c(OCC(=O)Nc2ccccc2F)c1,-3.19
3,Cc1ccc(-n2cnc(N)c2C(=O)c2ccc(Br)cc2)cc1,2.45
4,C[C@H](NC(=O)[C@H]1CCCN1C#N)C(=O)NCc1ccccc1,-0.972
5,CCOc1ccc(OCC)c(C2C(C#N)=C(N)SC(N)=C2C#N)c1,23.2
6,Cc1ccc(C)c(S(=O)(=O)Nc2ccc3oc(=O)sc3c2)c1,-4.59
7,COc1ccc(N(C(C)=O)C2SC(=O)N(c3ccccc3)C2=O)cc1 (centres unmarked),-9.66
8,CCOC(=O)C1=C(CC)OC(N)=C(C#N)C1c1cccc(OC)c1 (centres unmarked),-0.771
9,Cc1ccc(-c2nc(CS(=O)(=O)CC(=O)NC(C)C34CC5CC(CC(C5)C3)C4)c(C)o2)cc1 (centres unmarked),-0.138
10,CCN(CC)CCCNC(=O)c1ccc(-n2c(C)cc3c2CCC(C)C3)cc1 (centres unmarked),-0.0871
11,COc1ccc(CN2CC(C(=O)NCCCN3CCOCC3)CC2=O)cc1 (centres unmarked),1.62
12,O=S(=O)(NCc1ccc2c(c1)OCO2)c1ccc(-c2cc(C(F)(F)F)no2)s1,2.91
13,CCOc1ccc(NC(=O)c2ccc(N(C)S(C)(=O)=O)cc2)cc1,5.77
14,COc1ccc(C(=O)N2CCN(Cc3ccccc3C)CC2)cc1OC,-13.5
15,Cn1c(=O)c2c(nc(CN3CCN(CCO)CC3)n2Cc2c(F)cccc2Cl)n(C)c1=O,-4.14
16,CCOc1ccc(S(=O)(=O)N(CC(=O)N2CCCC2)c2ccccc2)cc1,0.408
17,Cn1c(C=O)c(Cl)c2ccccc21,4.24
18,Clc1cccc(Cl)c1CN1CCN(Cc2ccccc2)CC1,-0.446
19,O=[N+]([O-])c1cc(C(F)(F)F)ccc1N1CCc2ccccc2C1,-3.8
20,CC(NC(=O)C(C)n1c2ccccc2c2cnnc(O)c21)c1ccccc1 (centres unmarked),1.38
21,Cc1cccc(NC(=O)c2cccc(N)c2)c1,4.44
22,O=C(Nc1cc(Cl)ccc1Cl)c1ccc(Br)cc1,-3.71

row,SMILES,% Inhibition @ 10 uM [%]
1,CCOc1ccccc1N1CCN(S(=O)(=O)c2ccc(OC)cc2)CC1,-5.69
2,COc1ccccc1/C=C/C(=O)c1c(C)cc(C)nc1O,0.317
3,COc1ccc2c(=O)c(Oc3ccc(Cl)cc3)coc2c1,0.161
4,O=C(NCc1ccccc1)c1ccc2nc(N3CCN(Cc4ccc(Cl)cc4)CC3)ccc2n1,-2.52
5,O=C(NCCCc1nc2ccccc2n1Cc1ccccc1)c1ccccc1,-4.07
6,CC(C)(C)C1CCC(OC(=O)CCC(=O)Nc2ncncn2)CC1 (centres unmarked),-3.58
7,COc1cc(NC(=O)c2ccccc2)c(Cl)cc1NC(C)=O,-4.31
8,COc1cc(CCC(=O)Nc2nccs2)on1,9.89
9,CCN(CCN(C)C)C1CCN(CCc2ccccc2)CC1,1.57
10,CCn1c2ccccc2c2cc(CN3CCCCCCC3)ccc21,-0.828
11,CCOC(=O)c1cnc2ccc(C)cc2c1NCCN1CCOCC1,-3.06
12,CCOc1ccccc1NC(=O)CC(C)C,0.583
13,Cc1nc2ccn(Cc3cccs3)c(=O)c2cc1C(=O)N1CCCC1,-10.2
14,CCC1CCCCN1CCCNC(=O)Cn1ncc2c3ccccc3n(Cc3ccccc3)c2c1=O (centres unmarked),-1.58
15,CCOc1ccc(C2C3=C(O)CCCC3=Nc3nc(-c4ccc(OC)cc4)nn32)cc1OC (centres unmarked),-1.47
16,Cc1ccc(-c2csc(/C(C#N)=C\c3cccc(Cl)c3)n2)cc1,5.29
17,CN(C)c1ccc(Nc2cccc3nonc23)cc1,5.87
18,CSC1=NC(C)(C)CCC12C=CC(=O)C=C2,1.74
19,CC(C)CNC(=O)COCc1cc(-c2ccc3c(c2)OCO3)on1,1.6
20,Cc1cc(Oc2ccc(C#N)cc2)nc(-c2ccccc2O)n1,-1.97
21,Nc1ncc(Br)cc1S(=O)(=O)NCCC(=O)N1CCN(c2ncccn2)CC1,1.93
